According to PubChem BioAssay AID624296 (National Center for Advancing Translational Sciences (NCATS), 2012):
Out of some 350,000 compounds screened, about 9,900 (2.8%) were called active. The shares of active, inactive and inconclusive entries below differ from those in the screen. Calls follow the shape of the dose curve; as a rule, active = well fitted activation curve with a large enough effect; inconclusive = small, poorly fitted or top-dose-only effect; inactive = no such curve, though single readings can be large or run the other way. No potency is given beside an inconclusive call; the fits are too rough.
Potency is read from the fitted curve at half-maximal effect; tags tell the direction and shape of the fitted curve.

Assay: A quantitative high throughput screen for small molecules that induce DNA re-replication in MCF 10a normal breast cells. Also: nearly all actives have a fitted effect of over 50% in size. As to activity, positive = re-replication: % of control where 0% means no effect.
Conditions: MCF 10A DNA re-replication, Hoechst nuclear intensity, 48 h; activity, positive = re-replication: at 46.1 µM (top of the series)
In the case of O=C(NCc1ccc(Cl)cc1)c1cccc(NC(=O)c2ccccc2)c1, the Potency is reported as inconclusive [activator, single point]. In the case of CC(=O)c1cccc(NC(=O)NC(C)c2ccc3c(c2)OCO3)c1 (stereo unspecified), the “activity, positive = re-replication” value is reported as inactive: -0.761%. For COc1ccccc1C(=O)Nc1ccccc1N1CCOCC1, the “activity, positive = re-replication” value was inactive: -5.2%. For CC1=NN(c2ccc(Cl)cc2)C(=O)/C1=C\c1cccn1-c1ccc(S(N)(=O)=O)cc1, the Potency was inconclusive [activator, full curve]. With O=C(/C=C/Nc1ccc(Oc2ccccc2)cc1)c1ccco1 the Potency was inconclusive [activator, single point]. For COc1ccc(O)c(-c2cc(C(F)(F)C(F)F)nc(-c3ccccc3)n2)c1, the Potency was inconclusive [activator, single point]. With Cc1ccc(NC(=O)Cc2ccc(Cl)c(Cl)c2)cc1S(=O)(=O)N(C)C the Potency was inconclusive [activator, partial curve]. In the case of Cc1ccc(S(=O)(=O)N2CCCC2)cc1C(=O)NCC(C)(C)N1CCOCC1, the “activity, positive = re-replication” value is reported as inactive: -2.49%. With CC(C)(C)c1ccc(OCCC(=O)Nc2ccc(N3CCOCC3)cc2N2CCOCC2)cc1 the Potency was inconclusive [activator, single point]. With S=c1[nH]nc(Nc2ccc(Cl)cc2)s1 the “activity, positive = re-replication” value was inactive: 0.0449%. With O=C(CN(c1ccc2c(c1)OCCO2)S(=O)(=O)c1ccccc1)Nc1ccc2c(c1)OCO2 the Potency was inconclusive [activator, single point]. For COc1ccc(C2CC(=O)Oc3c(C(C)C)ccc(C)c32)cc1 (stereo unspecified), the Potency was inconclusive [activator, single point]. With COc1ccc(S(=O)(=O)N2CCCCCC2)cc1N(C)S(=O)(=O)c1ccc(C)cc1 the Potency was inconclusive [activator, partial curve, poor fit]. In the case of O=C(CCN1CCCCO1)N1CCCC(Nc2cccc(F)c2)C1 (stereo unspecified), the “activity, positive = re-replication” value is reported as inactive: 0.429%. In the case of Cc1cc(NC(=O)c2cc(-c3ccco3)on2)n(-c2ccccc2)n1, the Potency is reported as inconclusive [activator, single point]. For COc1ccc(N(CC(=O)NCc2ccc(F)cc2)C(=O)CCC(=O)Nc2nccs2)cc1, the Potency was inconclusive [activator, single point]. For CC(C)CN1CC(COCc2ccccc2)Oc2ccccc2S1(=O)=O (stereo unspecified), the Potency was inconclusive [activator, partial curve, poor fit]. With O=C(NCc1ccc(OC(F)(F)F)cc1)C1CC(c2ccc(C(F)(F)F)cc2)=NO1 (stereo unspecified) the Potency was inconclusive [activator, single point]. With CCc1nn(C(C)C(=O)NCc2ccc(Cl)cc2)c(=O)c2cc3occc3n12 (stereo unspecified) the “activity, positive = re-replication” value was inactive: 12.1%. For Cc1cc(-c2ccco2)c(C#N)c2nc3ccccc3n12, the Potency was active: 18.4 µM. With O=C(CCl)Nc1cccn2ncnc12 the Potency was inconclusive [activator, single point]. For Cc1ccc(C(=O)N/N=C\c2cccn2C)cn1, the “activity, positive = re-replication” value was inactive: -5.17%. In the case of CCn1c2ccccc2c2cc(NC(=O)c3cc(OC)c(OC)c(OC)c3)ccc21, the activity, positive = re-replication is reported as inconclusive: 90.7% [activator]. In the case of CC(=O)N[C@H]1C(O)O[C@H](CO)[C@@H](O)[C@@H]1O (stereo partly specified), the “activity, positive = re-replication” value is reported as inactive: -14.2%. For CCOC(=O)CNc1c(-c2ccc(O)cc2)nc2ccc(Cl)cn12, the Potency was inconclusive [activator, single point]. With CCN(CC)CCNCc1ccc(Br)cc1OCC(=O)NCc1ccccc1 the Potency was inconclusive [activator, single point]. In the case of Cc1ccc(CN=C(N)Nc2nc(C)cc(C)n2)cc1, the Potency is reported as inconclusive [activator, single point]. For Cc1ccc(C2=CC(=O)C[C@H](c3ccc4c(c3)OCO4)C2)cc1, the Potency was inconclusive [activator, partial curve, poor fit]. In the case of CCOC(=O)Cc1csc(NC(=O)c2ccncc2)n1, the Potency is reported as inconclusive [activator, partial curve, poor fit]. In the case of COC(=O)Cc1cn(-c2ncc(C(F)(F)F)cc2Cl)c2ccccc12, the “activity, positive = re-replication” value is reported as inactive: 11.3%. In the case of O=C1[C@@H]2C(c3cccnc3)=NO[C@@H]2C(=O)N1c1ccc2ccccc2c1, the Potency is reported as inconclusive [activator, partial curve, poor fit]. In the case of O=C(CN1CCN(S(=O)(=O)c2ccc(F)cc2)CC1)Nc1ccc(F)cc1F, the “activity, positive = re-replication” value is reported as inactive: 13.1%. In the case of CC(=O)Nc1ccc(Sc2ccc([N+](=O)[O-])o2)cc1, the Potency is reported as active: 1.84 µM. For C=CCc1c(C)nc2cc(-c3ccc(C)cc3)[nH]n2c1=O, the “activity, positive = re-replication” value was inactive: -1.21%. In the case of O=C(NCc1ccc2c(c1)OCO2)c1ccc(COc2cccc(Cl)c2)o1, the Potency is reported as inconclusive [activator, single point]. For CCCCn1c(N)c(-c2nc3ccccc3o2)c2c([N+](=O)[O-])nn(C)c(=O)c21, the “activity, positive = re-replication” value was inactive: -1.04%. For CCOC(=O)Cc1[nH]nc2c1C(c1cccc(OC)c1OC)C(C#N)=C(N)O2 (stereo unspecified), the Potency was inconclusive [activator, single point]. In the case of Cn1cc(C2CC(c3ccccc3)=NN2C(=O)c2ccccc2)c2ccccc21 (stereo unspecified), the Potency is reported as active: 5.8 µM. In the case of CCOc1ccccc1OCCCC(=O)N(CC)CC(=O)Nc1c(F)cccc1F, the “activity, positive = re-replication” value is reported as inactive: 5.39%. In the case of Cc1cc(C(=O)Cn2c(CO)nc3ccccc32)c(C)n1C, the “activity, positive = re-replication” value is reported as inactive: -6.26%. With COc1ccc(N(Cc2cc(=O)[nH]c3ccccc23)C(C)=O)cc1 the “activity, positive = re-replication” value was inactive: -2.55%. In the case of CCCC(=O)C1CCN(Cc2ccccc2)CC1, the Potency is reported as inconclusive [activator, partial curve, poor fit]. In the case of Cc1ccccc1Cn1c(O)c(N=NC(=S)Nc2ccccc2F)c2ccccc21, the “activity, positive = re-replication” value is reported as inactive: 5.38%. In the case of Cc1ccc(C)c(N2CC(=O)N(c3cc(C)ccc3C)CC2=O)c1, the “activity, positive = re-replication” value is reported as inactive: -0.219%. With O=c1c2ccccc2nc(SCc2cc(F)cc3c2OCOC3)n1Cc1ccco1 the Potency was inconclusive [activator, single point]. For CCOc1nc(-c2ccc(Cl)cc2)nc2ccccc12, the “activity, positive = re-replication” value was inactive: 7.39%. With COc1ccc(Cl)cc1-c1n[nH]c(=S)n1C the activity, positive = re-replication was inconclusive: 21.4% [activator]. In the case of O=C(N/N=C/c1ccccc1)c1sccc1OCc1ccc(F)cc1, the Potency is reported as inconclusive [activator, partial curve]. For CN(C)S(=O)(=O)Oc1ccc(C(=O)Nc2cccc(C(F)(F)F)c2)cc1, the “activity, positive = re-replication” value was inactive: 5.27%. For CCCc1nnc(SCC(=O)Nc2nc(C)cs2)n1CCOC, the “activity, positive = re-replication” value was inactive: 10.2%. With O=C(Cn1nnc(-c2ccc(CN3CCOCC3)cc2)n1)N(c1ccccc1)c1ccccc1 the Potency was inconclusive [activator, single point]. For CCOC(=O)c1nn(-c2cccc(Cl)c2)c2nc(Nc3ccccc3)cc(=O)n12, the Potency was inconclusive [activator, partial curve, poor fit]. With Cc1ccc(C)c(NC(=O)C2CCCN(S(=O)(=O)c3c(C)noc3/C=C/N(C)C)C2)c1 (stereo unspecified) the Potency was active: 18.4 µM. For CCOc1cc(CNCc2ccncc2)cc(Br)c1OCc1ccccc1F, the Potency was inconclusive [activator, partial curve]. For COC(=O)c1c(N2C(=O)CC(Sc3ccccc3C(=O)O)C2=O)sc(C)c1C (stereo unspecified), the Potency was inconclusive [activator, single point]. For Cc1ccc(N2CCN(C3=NC(=O)C(Cc4ccccc4)S3)CC2)cc1 (stereo unspecified), the “activity, positive = re-replication” value was inactive: -3.13%. For CCCN(CCC)S(=O)(=O)c1cc2c(cc1Br)CCN2C(=O)CC, the Potency was active: 18.4 µM. In the case of CCOC(=O)c1cnc2c(c(C)nn2C)c1Oc1ccc(Cl)cc1, the “activity, positive = re-replication” value is reported as inactive: 15.9%. For Cc1cc(-c2csc(NC(=O)c3ccc(S(=O)(=O)N(C)C)cc3)n2)c(C)n1-c1ccccc1, the “activity, positive = re-replication” value was inactive: -1.23%. With O=C(NCc1ccc(F)cc1)c1cccc2c1C(=O)c1ccc(N3CCC(Cc4ccccc4)CC3)cc1S2(=O)=O the Potency was inconclusive [activator, single point]. In the case of CC(Oc1ccc(Br)cc1)c1nc2c3ccccc3nc(=S)n2[nH]1 (stereo unspecified), the Potency is reported as inconclusive [activator, partial curve, poor fit]. For CCN1CCN(S(=O)(=O)c2ccc3c4c(cccc24)C(=O)N3CC)CC1, the Potency was inconclusive [activator, single point]. In the case of CC1Sc2ccc(S(=O)(=O)N3CCN(c4ccccc4)CC3)cc2NC1=O (stereo unspecified), the Potency is reported as inconclusive [activator, single point]. In the case of O=[N+]([O-])c1ccc2nc(-c3ccc(Cl)cc3)[nH]c2c1, the Potency is reported as inconclusive [activator, single point]. In the case of CC(C)(C)c1ccc(Oc2ccc(N)cc2)cc1, the Potency is reported as inconclusive [activator, partial curve, poor fit]. In the case of O=C(/C=C/c1ccc(Br)cc1)N1CCN(c2cccc(C(F)(F)F)c2)CC1, the Potency is reported as active: 13 µM. With Cc1ccc(NC(=O)CN2C(=O)CCSc3ccc(S(=O)(=O)N4CCCC4)cc32)cc1 the Potency was inconclusive [activator, single point]. In the case of COC(=O)c1cc(OC)c(OC)c(OC)c1NC(=O)c1ccc(S(=O)(=O)N(C)C)cc1, the Potency is reported as inconclusive [activator, single point]. In the case of O=C(CC1Sc2ncnn2C1=O)Nc1ccc(Br)cc1 (stereo unspecified), the Potency is reported as inconclusive [activator, single point]. With CN1C(=O)N(CC(=O)Nc2cccc(S(=O)(=O)N(C)c3ccccc3)c2)C(=O)C12CCCCC2 the Potency was inconclusive [activator, partial curve, poor fit]. In the case of CN1CCN(c2nc(NCc3ccco3)nc(N)c2[N+](=O)[O-])CC1, the Potency is reported as inconclusive [activator, full curve, poor fit].
